Hit rate of the full screen: of about 410,000 compounds, about 530 (0.13%) were called active. Inconclusive means that the source gave no clear call. Such entries were picked first, then a sample of the others. Calls follow the shape of the dose curve; as a rule, active = well fitted inhibition curve with a large enough effect; inconclusive = small, poorly fitted or top-dose-only effect, or another doubt; inactive = no such curve, though single readings can be large or run the other way. Where the call is inconclusive, the potency comes from a doubtful curve fit.
assay: qHTS of GLP-1 Receptor Inverse Agonists: Cytotox Screen; conditions: HEK293 cAMP-luciferase reporter cells, luminescence, 24 h; activity change, negative = inhibition: at 38.3 µM (top of the series) unless noted
How it was run: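 Seeding density was 200 cells/uL; after overnight-length (12 h) culture, 23 nL compounds went on for 24 h at 37 °C. Readout used a luciferase detection reagent, luminescence taken after 12 min at room temperature.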
% is scaled to controls: 0 for no effect and ±100 for the full control effect; potency is read from the fitted curve at half-maximal effect.

| SMILES | Potency | activity change, negative = inhibition |
| --- | --- | --- |
| COC(=O)c1ccc(=O)c2nc3/c(=C/O)c(O)cc(=O)c3[nH]c12 | inconclusive: 12.6 µM [inhibitor, partial curve, poor fit] | – |
| O=C(CCNS(=O)(=O)c1ccc(Br)s1)Nc1ccc(Cl)cc1 | inconclusive: 31.6 µM [inhibitor, partial curve, poor fit] | – |
| O=C(Nc1ncc([N+](=O)[O-])s1)C1CC(=O)N(c2ccc(F)cc2)C1 (configuration not stated) | inconclusive: 31.6 µM [inhibitor, single point] | – |
| CC(C)(C)c1ccc(C2(C)NC(=O)N(CC(=O)c3ccc[nH]3)C2=O)cc1 (configuration not stated) | – | inconclusive: -30.9% [inhibitor] |
| Cc1csc2ncnc(NNC(=O)c3ccc(Cl)cc3)c12 | inconclusive: 28.2 µM [inhibitor, partial curve, poor fit] | – |
| CCOC(=O)c1cccc(NC(=O)c2cn(-c3cccc(OC)c3)c(=O)c3ccccc23)c1 | inactive | – |
| Cc1ccc(-c2nnn(CC(=O)N(CC3CCCO3)C(C(=O)NC3CCCC3)c3ccc(O)cc3)n2)o1 (configuration not stated) | – | inconclusive: -33.6% [inhibitor] [at 7.66 µM] |
| CC(C)N1C(=O)CC(Nc2cccc3cccc(N)c23)C1=O (configuration not stated) | inconclusive: 11.2 µM [inhibitor, single point] | – |
| Cc1ccc(NC(=O)CCN2CCC(Cc3ccccc3)CC2)cc1 | inconclusive: 28.2 µM [inhibitor, single point] | – |
| O=[N+]([O-])c1cccc(NC(=S)Nc2nc(-c3ccccc3Cl)cs2)c1 | inconclusive: 4.47 µM [inhibitor, partial curve] | – |
| Cc1c(C(=O)N2CCN(c3ccc([N+](=O)[O-])cc3)CC2)sc2ncn(CC(=O)N3CCOCC3)c(=O)c12 | inconclusive: 10 µM [inhibitor, single point] | – |
| NC(Cc1ccccc1)c1csc(NC(=O)c2cccc(OC(F)(F)F)c2)n1 (configuration not stated) | inconclusive: 28.2 µM [inhibitor, single point] | – |
| Cc1cc2nc(C)n(CCCNC(=O)Nc3cccc4ccccc34)c2cc1C | inconclusive: 3.98 µM [inhibitor, single point] | – |
| COc1ccc(-c2nc(SCC(=O)c3ccc(OC)c(Br)c3)n[nH]2)cc1 | inconclusive: 3.16 µM [inhibitor, partial curve] | – |
| Cc1ccc(OCC(=O)N/N=C/C=C/c2ccco2)cc1C | inconclusive: 20 µM [inhibitor, single point] | – |
| c1coc(C2=Nc3cccc4cccc(c34)N2)c1 | inconclusive: 14.1 µM [inhibitor, single point] | – |
| CCOc1ccccc1NC(=S)NCCc1ccccc1 | inconclusive: 12.6 µM [inhibitor, single point] | – |
| CCCCCCCCC[n+]1cccc2c3ccccc3ccc21 | inconclusive: 7.08 µM [inhibitor, partial curve, poor fit] | – |
| CC1CCN(C(=O)CSc2nc(C3CC3)nc3ccccc23)CC1 | inactive | – |
| CC1=C(C(=O)N2CCCCCC2)CC(CC(=O)NC(c2ccccc2)c2ccccc2)C(=O)N1CCC1=CCCCC1 (configuration not stated) | inconclusive: 22.4 µM [inhibitor, single point] | – |
| Cc1cc2sc3ccccc3c(=O)c2c(C)c1O | inactive | – |
| Cc1c(NC(=O)c2ccc(C(C)(C)C)cc2)cccc1[N+](=O)[O-] | inactive | – |
| OC(CN1CCCCC1)Cn1c2ccccc2c2cc(Br)ccc21 (configuration not stated) | inconclusive: 28.2 µM [inhibitor, single point] | – |

| SMILES | Potency | activity change, negative = inhibition |
| --- | --- | --- |
| COc1cc(/C=C/C(=O)OCc2cn3cc(Cl)ccc3n2)ccc1O | inconclusive: 3.55 µM [inhibitor, partial curve, poor fit] | – |
| CC1CCCC(NC(=S)NC(=O)c2ccccc2Br)C1C (configuration not stated) | inconclusive: 28.2 µM [inhibitor, single point] | – |
| Cc1ncoc1C(=O)N1CCCC(CCC(=O)NCc2ccccc2F)C1 (configuration not stated) | inconclusive: 10 µM [inhibitor, partial curve, poor fit] | – |
| CCN(CC)C(=O)[C@H]1C[C@H](CC(=O)NCc2cccc(C(F)(F)F)c2)C(=O)N2CCc3c([nH]c4ccc(Cl)cc34)[C@]12C | inconclusive: 14.1 µM [inhibitor, single point] | – |
| CC(C)CC1C(=O)N(Cc2cn(CC3CCCCC3)nn2)CCS(=O)(=O)N1Cc1ccc(-c2cccc(CO)c2)cc1 (configuration not stated) | inconclusive: 7.94 µM [inhibitor, partial curve, poor fit] | – |
| CCOC1=C/C(=C/c2c(N)n3nc(S(=O)(=O)CC)sc3nc2=O)C=CC1=O | inactive | – |
| O=C(c1ccc(Cl)cc1)c1c[nH]c(C(=O)NNc2cccc(Cl)n2)c1 | inconclusive: 22.4 µM [inhibitor, single point] | – |
| CSc1ccc(Cl)c(C(=O)N2CCN(c3ncccn3)CC2)c1 | inactive | – |
| COc1ccc(OCc2ccc(-c3nc(C#N)c(N4CCN(c5cccc(Cl)c5)CC4)o3)o2)cc1 | inactive | – |
| CCN(CCNCC(O)COCc1ccc(Cl)cc1)c1cccc(C)c1 (configuration not stated) | inconclusive: 28.2 µM [inhibitor, single point] | – |
| O=C(CSc1nc2c([nH]c3ccccc32)c(=O)n1-c1ccc(F)cc1)NC1CCCCC1 | inactive | – |
| CCN(CC)C(=O)C1=C(C)N(CCCN2CCCC2=O)C(=O)C(CC(=O)NCCCN(C)C)C1 (configuration not stated) | inactive | – |
| Cc1ccc(OCC(=O)N/N=C\c2c(C)n(C)c3ccccc23)c([N+](=O)[O-])c1 | inconclusive: 10 µM [inhibitor, partial curve] | – |
| S=c1nc[nH]c2c1[nH]c1ccccc12 | inconclusive: 28.2 µM [inhibitor, single point] | – |
| CN(C)CCCN(C(=O)CCOc1ccccc1)c1nc2c(F)cccc2s1 | inconclusive: 11.2 µM [inhibitor, partial curve, poor fit] | – |
| CC(COc1ccccc1)N1CCC(CO)(CCc2ccccc2)CC1 (configuration not stated) | inconclusive: 28.2 µM [inhibitor, single point] | – |
| Cc1cc(C)cc(Nc2cc(C(=O)NCCCN(Cc3ccccc3)C(C)C)c3ccccc3n2)c1 | inconclusive: 11.2 µM [inhibitor, single point] | – |
| COC(=O)CC1Oc2ccc(F)cc2-n2cc(-c3ccc(Cl)cc3)nc21 (configuration not stated) | inactive | – |
| CN(C(=O)COc1ccc(Oc2ccccc2)cc1)C1CCS(=O)(=O)C1 (configuration not stated) | inconclusive: 1.41 µM [inhibitor, partial curve, poor fit] | – |
| COc1ccc(CCNC(=S)Nc2cccc(C)c2C)cc1 | inconclusive: 28.2 µM [inhibitor, single point] | – |
| CN(c1ccccc1)S(=O)(=O)c1cccc(C(=O)OCC(=O)NCc2ccco2)c1 | inactive | – |
| CCOc1cc2[nH]c(=O)n(CCCC(=O)NCc3ccco3)c(=O)c2cc1OCC | inactive | – |
| CC1=CC(C)(C)NC(=S)N1c1ccccc1C | inconclusive: 28.2 µM [inhibitor, single point] | – |

| SMILES | Potency | activity change, negative = inhibition |
| --- | --- | --- |
| COc1ccc(-c2cc(C(=O)NCc3cccnc3)no2)cc1 | inconclusive: 28.2 µM [inhibitor, single point] | – |
| O=C1NC(=Nc2ccccc2)S/C1=C\c1cccn1-c1ccccc1 | inconclusive: 1.78 µM [inhibitor, full curve, poor fit] | – |
| O=C(COc1ccc2ccccc2c1)Nc1cccc(C(=O)Nc2ccccc2C(=O)O)c1 | inconclusive: 28.2 µM [inhibitor, single point] | – |
| COc1ccc(-n2c(SCCNCCO)nc3sc4c(c3c2=O)CCCC4)cc1 | inconclusive: 28.2 µM [inhibitor, single point] | – |
| COc1cc(C(=O)Oc2ccccc2/C=N/NC(=O)c2ccc(C)c(Cl)c2)cc(OC)c1OC | inconclusive: 3.55 µM [inhibitor, full curve, poor fit] | – |
| CCC1C(=NO)C(CC)C(c2ccccc2)NC1c1ccccc1 (configuration not stated) | inconclusive: 28.2 µM [inhibitor, single point] | – |
| C=C1C(=O)CC2=C1[C@](Cc1ccc(F)cc1)(C(=O)OC)N(C(=O)c1ccccc1)C2 | inactive | – |
| O=C(Cc1ccccc1)N/N=C/c1ccccn1 | inconclusive: 5.01 µM [inhibitor, partial curve, poor fit] | – |
| CC[C@@H](C)[C@H](CN[C@H](CNC)C(C)C)NC[C@@H](C)c1ccc(CC(C)C)cc1 | active: 11.2 µM | – |
| O=C(N/N=C/c1ccc(N2CCOCC2)o1)c1cccc(C(F)(F)F)c1 | inactive | – |
| Nc1ccc2nc3c(=O)n(CCc4ccccc4)c(=O)[nH]c3nc2c1 | inactive | – |
| C/C(=N\NC(=O)c1cccc(F)c1)c1ccc(Br)s1 | inactive | – |
| CCCOc1ccc(CN(C(=O)c2cc(=O)c3ccc(C)cc3o2)C2CCS(=O)(=O)C2)cc1 (configuration not stated) | inactive | – |
| Cc1nc2cc(NC(=O)NCc3ccco3)ccc2n1C | inactive | – |
| O=C(NC(=S)Nc1ccc([N+](=O)[O-])cc1O)C1CCCCC1 | inconclusive: 28.2 µM [inhibitor, single point] | – |
| COC(=O)c1sc2ncccc2c1OCc1c(Cl)cccc1Cl | inactive | – |
| NC(=S)N/N=C/c1ccc(-c2ccccc2)o1 | inconclusive: 11.2 µM [inhibitor, partial curve, poor fit] | – |
| CC(C)(C)c1ccc(CC(=O)N2CCC2(C)C(=O)NS(=O)(=O)c2cccc(F)c2)cc1 (configuration not stated) | inactive | – |
| CCN(CC)c1ccc(Nc2nc(N3CCOCC3)c3ccccc3n2)cc1 | inconclusive: 28.2 µM [inhibitor, single point] | – |
| Cc1cc(N=Nc2ccccc2C(=O)O)c(C)c(C)c1O | inconclusive: 11.2 µM [inhibitor, partial curve] | – |
| COc1ccc(C(=O)NN2CCOCC2)cc1[N+](=O)[O-] | inconclusive: 28.2 µM [inhibitor, single point] | – |
